Measurements as given in the supplement of paper PMC8047034.
Counter-ions that a name gives are not always drawn. Some of the results follow. Many values rest on one well or one pass, so single values are uncertain.

How the values were obtained:
OVCAR4 = assay: log2 surviving fraction (library drug vs vehicle, or drug + carboplatin vs carboplatin alone; relative to plate median); ovarian cancer lines: OVCAR4 is platinum-sensitive and Ov4Carbo platinum-resistant; higher = more cell survival; conditions: library drug concentration 10 µM, 7 days
Ov4Carbo = assay: as above; conditions: library drug concentration 10 µM, 7 days

SMILES	log2 surviving fraction (OVCAR4; carboplatin co-treatment 0 µM)	log2 surviving fraction (OVCAR4; carboplatin co-treatment 5 µM)	log2 surviving fraction (Ov4Carbo; carboplatin co-treatment 0 µM)	log2 surviving fraction (Ov4Carbo; carboplatin co-treatment 5 µM)
O=C(O)Cc1ccccc1Nc1c(Cl)cccc1Cl [Diclofenac Potassium]	1.05	0.502	1.15	0.331
CC(C)(C)C(=O)C(Oc1ccc(Cl)cc1)n1ccnc1 (centres undefined) [Climbazole]	-1.21	-1.51	-0.602	-1.81
CCC1=C[C@@H]2CN(C1)Cc1c([nH]c3ccccc13)[C@@](C(=O)OC)(c1cc3c(cc1OC)N(C)[C@H]1[C@@](O)(C(=O)OC)[C@H](OC(C)=O)[C@]4(CC)C=CCN5CC[C@]31[C@@H]54)C2 [Vinorelbine (Navelbine)]	-5.79	-4.7	-6.09	-5.76
COc1nc(C)nc(Cl)c1NC1=NCCN1 [Moxonidine]	0.341	0.272	0.512	0.358
O=NN(CCCl)C(=O)NC1CCCCC1 [Lomustine (CeeNU)]	0.567	0.61	0.724	0.273
C=C1CC[C@H](O)C/C1=C/C=C1\CCC[C@]2(C)[C@@H]([C@H](C)CCCC(C)C)CC[C@@H]12 [Vitamin D3 (Cholecalciferol)]	-0.143	-0.401	-0.657	-0.746
COc1cc(C)c(/C=C/C(C)=C/C=C/C(C)=C/C(=O)O)c(C)c1C [Acitretin]	1.16	0.656	-0.702	-1.44
CCCCc1oc2ccc(NS(C)(=O)=O)cc2c1C(=O)c1ccc(OCCCN(CCCC)CCCC)cc1 [Dronedarone HCl (Multaq)]	-7.76	-6.39	-6.88	-6.9
CN(CCOc1ccc(CC2SC(=O)NC2=O)cc1)c1ccccn1 (centres undefined) [Rosiglitazone (Avandia)]	1.18	0.73	-0.215	1
CN(CCOc1ccc(CC2SC(=O)NC2=O)cc1)c1ccccn1 (centres undefined) [Rosiglitazone HCl]	2.43	0.749	1.92	1.16
CCCCCCCCCCCC[N+](C)(C)CCOc1ccccc1 [Domiphen Bromide]	-8.84	-7.13	-7.94	-7.55
NCCC(O)(P(=O)(O)O)P(=O)(O)O [Pamidronate Disodium]	0.63	2.1	1.21	-0.0745
CO[C@@H]1[C@@H](OC(N)=O)[C@@H](O)[C@H](Oc2ccc3c(O)c(NC(=O)c4ccc(O)c(CC=C(C)C)c4)c(=O)oc3c2C)OC1(C)C [Novobiocin sodium (Albamycin)]	0.239	0.197	0.556	-0.326
O=C(NCCN1CCOCC1)c1ccc(Cl)cc1 [Moclobemide]	-1.91	-2.22	0.444	-0.487
Nc1ccc(C(=O)O)c(O)c1 [Aminosalicylate sodium]	-0.462	-0.511	0.0677	-0.803
C[C@]12CCC(=O)C=C1CC[C@@H]1[C@@H]2[C@@H](O)C[C@@]2(C)[C@H]1CC[C@]2(O)C(=O)CO [Hydrocortisone (Cortisol)]	-1.54	0.312	-0.188	-0.0526
Cc1cccc(CN2CCN(C(c3ccccc3)c3ccc(Cl)cc3)CC2)c1 (centres undefined) [Meclizine 2HCl]	-0.462	1.38	0.22	1.11
Cc1cccc(C)c1NC(=O)CN1CCCC1=O [Nefiracetam (Translon)]	-0.0486	1.42	0.857	0.559
CC/C(=C(/CC)c1ccc(O)cc1)c1ccc(O)cc1 [Diethylstilbestrol (Stilbestrol)]	-0.0533	-0.00788	0.095	-4.69
Cc1cccc([C@H](C)c2c[nH]cn2)c1C [Dexmedetomidine]	0.419	-1.52	0.615	1.23
CCC(COC(=O)c1cc(OC)c(OC)c(OC)c1)(c1ccccc1)N(C)C (centres undefined) [Trimebutine]	0.372	-1.08	0.574	-0.457
CNCCC(Oc1ccc(C(F)(F)F)cc1)c1ccccc1 (centres undefined) [Fluoxetine  HCl]	-2.84	-7.36	-4.56	-4.47
Cc1cnc(C(=O)NCCc2ccc(S(=O)(=O)NC(=O)NC3CCCCC3)cc2)cn1 [Glipizide (Glucotrol)]	-9.91	-4.11	-0.839	0.245
Cc1cccc(Cc2c[nH]cn2)c1C [Detomidine HCl]	1.24	-0.275	0.677	0.597
NC(=O)c1ncn([C@@H]2O[C@H](CO)[C@@H](O)[C@H]2O)n1 [Ribavirin (Copegus)]	0.449	0.715	0.292	0.74
O=P1(NCCCl)OCCCN1CCCl (centres undefined) [Ifosfamide]	-0.209	0.68	-0.0329	0.16
